# Experimental data from the BET-seq Pho4 binding data (Le et al. 2018).
# This is one part of the list. Values were computed here from the reads of four pooled replicates and scatter widely.
# Biological target: T1, Pho4 (S. cerevisiae) (UniProt P07270)
# T1 sequence: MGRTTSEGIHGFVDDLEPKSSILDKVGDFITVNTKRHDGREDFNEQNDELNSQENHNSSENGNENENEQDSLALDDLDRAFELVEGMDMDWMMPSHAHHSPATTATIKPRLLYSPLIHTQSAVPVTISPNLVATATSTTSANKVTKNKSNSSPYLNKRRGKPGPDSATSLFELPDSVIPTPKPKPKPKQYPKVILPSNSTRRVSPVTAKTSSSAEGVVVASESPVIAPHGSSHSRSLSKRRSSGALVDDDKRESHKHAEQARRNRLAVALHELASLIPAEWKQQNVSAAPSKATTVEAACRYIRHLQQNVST
# Test: relative binding free energy (BET-seq); higher = weaker binding
# Details: reference: library average
row,Sequence,relative binding free energy [kcal/mol]
1,TGTGTCACGTGAGCGT,0.17
2,GAAGGCACGTGGTTGA,-0.1
3,AGTTACACGTGTTGGA,0.06
4,TACGGCACGTGTTGGC,-0.14
5,ATTAACACGTGTAATT,0.13
6,ATTAGCACGTGCTATG,-0.11
7,AGTATCACGTGAAATG,0.29
8,GAGAACACGTGTTAGG,0.19
9,TTTTTCACGTGCTTAA,0.24
10,TATGTCACGTGTGTCA,-0.03
11,GATGACACGTGGTTTG,0.01
12,GGATGCACGTGCTAGG,-0.1
13,TGTGGCACGTGCTCTT,-0.19
14,GGACTCACGTGGTGAG,0.21
15,TTGGGCACGTGCGGTG,-0.06
16,AGAAGCACGTGAGGGG,0.3
17,TCTCTCACGTGGGAGG,0.28
18,TGCAGCACGTGCTGGG,0
19,GGAGACACGTGGCCGG,0.07
20,GTTAGCACGTGAAGAT,0.14
21,TGAGGCACGTGGTCTT,-0.16
22,CGTGGCACGTGGACGT,-0.1
23,TATTTCACGTGAAGTG,0.45

row,Sequence,relative binding free energy [kcal/mol]
1,AGGTTCACGTGGGGGT,0.17
2,TTCTTCACGTGGCTTG,0.21
3,CGATTCACGTGTTTTA,0.36
4,TCTGTCACGTGAATTG,0.42
5,TTGCTCACGTGATGGA,0.24
6,GCGGGCACGTGTAGGC,-0.13
7,GCATTCACGTGTTGTG,0.18
8,ACGGGCACGTGGTTCG,-0.17
9,GTTAACACGTGAGTTG,0.23
10,AGTGACACGTGGAGCT,0.08
11,TCTGGCACGTGAGTTA,0.07
12,TAACGCACGTGTAGTG,-0.06
13,TTAATCACGTGGGTAG,-0.02
14,CGGTGCACGTGTAAAT,0.15
15,GGTGTCACGTGAGGAT,0.24
16,AGTTCCACGTGTGTAT,0.12
17,AGATTCACGTGGGGCG,0.34
18,TTTAGCACGTGATGTG,0.14
19,AAGCACACGTGTAGGG,0.15
20,AAAGACACGTGTTAGT,0.03
21,AGGTGCACGTGAGCTG,0.2
22,AGGTTCACGTGTGCGG,0.26
23,GTTGTCACGTGTTATG,0.16

row,Sequence,relative binding free energy [kcal/mol]
1,GTAGTCACGTGGTGCC,0.1
2,CTGTTCACGTGAGCGT,0.3
3,TCGCTCACGTGTTGTT,0.2
4,GAAGTCACGTGCTGTT,0.27
5,TGAGTCACGTGTGCTA,0.15
6,AGTTTCACGTGAAATA,0.31
7,TAATACACGTGGGGAT,-0.1
8,ATTCTCACGTGTGCTG,0.26
9,TACTGCACGTGAAGTG,0.14
10,CTGTGCACGTGTCGTT,-0.04
11,GGTAGCACGTGTAAGC,0.15
12,ATGTCCACGTGATTGT,0.13
13,GGTAGCACGTGAATGG,0.24
14,CATTGCACGTGCGAGG,-0.01
15,GTCAGCACGTGGGGGC,-0.24
16,GCGTACACGTGAGGGC,0.41
17,TGTAGCACGTGTTAAT,0.04
18,GTTCGCACGTGGAGGC,0.02
19,TGAGTCACGTGTTAAA,0.13
20,GTTTCCACGTGTGGCA,0.43
21,GTGGTCACGTGCCTGT,0.07
22,TGCGTCACGTGGTCTG,-0.02
23,TAGGTCACGTGGTACA,0

row,Sequence,relative binding free energy [kcal/mol]
1,CATGTCACGTGCTGTG,0.02
2,GTCTTCACGTGGCTGG,0.29
3,TTTTACACGTGGTCAT,-0.04
4,TAGTGCACGTGAGTTG,0.3
5,TATGACACGTGGGGCT,-0.19
6,TTGTGCACGTGTCTTA,0.09
7,TGATTCACGTGCAAGT,0.2
8,ATAGACACGTGGATTT,0.14
9,AGATTCACGTGGAGTC,0.35
10,TCTTACACGTGGGAAG,0.32
11,ACTGTCACGTGTGGGT,0.11
12,GAAGTCACGTGGTTGT,0.09
13,TGGTCCACGTGGAGCG,0.21
14,GGGGTCACGTGTCGTA,0.23
15,AGTTCCACGTGGGGTG,-0.16
16,TTTTACACGTGACGTG,0.2
17,GGGCTCACGTGCGTGA,0.21
18,TAGACCACGTGGAGTT,0.21
19,GGTAGCACGTGTTTGA,-0.13
20,GACGTCACGTGAAGGG,0.44
21,TGCTTCACGTGTAGTA,0.09
22,TCATTCACGTGGTGAT,0.22
23,ATTTTCACGTGTAACT,0.2

row,Sequence,relative binding free energy [kcal/mol]
1,GATTTCACGTGGTTCT,0.2
2,TGATACACGTGGTTTT,0.11
3,AGAATCACGTGGTGGC,0.16
4,TTAAGCACGTGGGAAG,-0.26
5,ATTATCACGTGTTGCA,0.01
6,TGACACACGTGGGGTA,-0.22
7,TTGCTCACGTGGCTGT,0.08
8,TGATTCACGTGTCGAT,0.27
9,ATGGTCACGTGTTATT,0.14
10,TGGCTCACGTGTCTTT,0.22
11,GGTGGCACGTGTACTG,-0.05
12,GGGAGCACGTGGCGTG,-0.12
13,ATTGACACGTGAGGTG,0.12
14,GGGGCCACGTGGTGTT,-0.19
15,GATTACACGTGTTGAA,0.24
16,ACGCTCACGTGTGGTT,0.32
17,GGAGACACGTGTTGGC,0.05
18,GTGTACACGTGGTGTG,0
19,AAGTTCACGTGTAAAG,0.28
20,TCATGCACGTGTATTG,-0.18
21,CGTGCCACGTGGATGG,-0.17
22,AAAAGCACGTGGGTAG,-0.23
23,ATGTTCACGTGTTTGT,0.25
